Settings: Escherichia coli (strain K12), pH 7, CD, sodium phosphate 50 mM, reversible: Unknown

With “Thioredoxin 1 wild type (sequence left out)” the denaturant m value (25 °C, GdnHCl) was 3.4 kcal/mol/M, the “denaturant midpoint (higher = more stable)” value (25 °C, GdnHCl) was 2.6 M and the unfolding free energy (25 °C, GdnHCl) was 9 kcal/mol. It also gave a Tm (Thermal) of 87 °C.

From FireProtDB (doi:10.1021/bi010427y)
